The RNAGym collection of RNA variant scans (doi:10.1093/nar/gkz1192)
Read counts are not given, so values of variants with three or more changes are uncertain.

B1: CPEB3 Ribozyme (parent)
chain: UAACAGGGGGCCACAGCAGAAGCGUUCACGUCGCAGCCCCUGUCAGAUUCUGGUGAAUCUGCGAAUUCUGCUGUAUAUCUC

Variants of: B1
Assay: self-cleavage, relative activity (ratio to wild type); higher = more cleavage; in vitro, sequencing
Procedure, shortened: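 Relative activity compares each variant's cleaved/total read fraction with that of the unmutated ribozyme. To get these fractions, barcoded CPEB3 ribozyme libraries from rounds of error-prone PCR were transcribed with T7 RNA polymerase for 5 hours at 37°C and then given 15 min of DNase I treatment before EDTA was added. The RNAs were reverse transcribed with template switching and sequenced on Illumina, and DNA sequencing linked barcodes to variants. A minimum of 5 reads applied, and three batches were averaged.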

| Variant | self-cleavage |
| --- | --- |
| A21U U26C G36A C50U | 0.18 |
| A21U U26C U31A U43C | 0.07 |
| A21U U26C U31C U60C | 0.12 |
| A21U U26C U51A | 0.25 |
| A21U U26C U58C A64U | 0.12 |
| A21U U26C U72C | 0.26 |
| A21U U26G C50U U76C A77G | 0.18 |
| A21U U31A A45G A56U U66C | 0.1 |
| A21U U31A A56U A57G | 0.09 |
| A21U U31A C44G | 0.17 |
| A21U U31A U51C | 0.14 |
| A21U U31A U67A U76C | 0.04 |
| A21U U31C A35G U43C C50U | 0.28 |
| A21U U31C C59U | 0.11 |
| A21U U31C U54A A64U | 0.11 |
| A21U U31C U74C | 0.51 |
| A21U U31C U74C U78C | 0.44 |
| A21U U31G C38U A57G U58C U72C | 0.14 |
| A21U U41A A45G A56U A64U U66C | 0.09 |
| A21U U41A A64G A65G | 0.14 |
| A21U U41A A64G C68A U72A | 0.05 |
| A21U U41A A75G | 0.04 |
| A21U U41A U58A | 0.15 |
| A21U U41A U69A | 0.1 |

| Variant | self-cleavage |
| --- | --- |
| A21U U41A U80C | 0.26 |
| A21U U41C A75G | 0.12 |
| A21U U41C A75U | 0.26 |
| A21U U41C U48C A57G U72C U76C | 0.2 |
| A21U U41C U58A | 0.11 |
| A21U U41C U60C U80C | 0.23 |
| A21U U41C U66C U72C U78C | 0.17 |
| A21U U41C U67A | 0.37 |
| A21U U41G U60A | 0.18 |
| A21U U43A A56G U69C | 0.1 |
| A21U U43A U48C | 0.3 |
| A21U U43A U54C | 0.45 |
| A21U U43C A56G U58C A77U | 0.05 |
| A21U U43C U67C | 0.12 |
| A21U U43G A65G U67C U78A U80C | 0.08 |
| A21U U43G C62U | 0.4 |
| A21U U48C A64G | 0.11 |
| A21U U48C U49A | 0.32 |
| A21U U48C U66C | 0.18 |
| A21U U49A A57G | 0.07 |
| A21U U49A G55A A75G | 0.18 |
| A21U U49C C50G C62U U78C | 0.05 |
| A21U U49C G63A U69C | 0.1 |
| A21U U49C U51C U74A | 0.18 |

| Variant | self-cleavage |
| --- | --- |
| A21U U49C U78C | 0.3 |
| A21U U51A C62U U72C | 0.17 |
| A21U U51A U69A C79U | 0.14 |
| A21U U51A U72A | 0.15 |
| A21U U51C A64G | 0.08 |
| A21U U51C G53U A57U U67A U69C | 0.07 |
| A21U U51C G53U A64G U69C | 0.11 |
| A21U U51C U54C U66C A77U U80A | 0.22 |
| A21U U51C U58C U76A | 0.11 |
| A21U U51C U72C | 0.42 |
| A21U U54A A64U | 0.13 |
| A21U U54C U60A C62G U67C A75G | 0.04 |
| A21U U58A C81A | 0.2 |
| A21U U60C U66G | 0.13 |
| A21U U60C U69A | 0.09 |
| A21U U60C U72G A75G | 0.08 |
| A21U U69A U74C A75G | 0.13 |
| A21U U69A U78C | 0.18 |
| A21U U69C U72C | 0.13 |
| A21U U69C U80C | 0.35 |
| A21U U74C A77G | 0.83 |
| A21U U74C U78A | 0.62 |
| G22A A28C A45G | 0.18 |
| G22A A28C U51G | 0.14 |

| Variant | self-cleavage |
| --- | --- |
| G22A A28G U41C U49C U51C A56G U69A | 0.14 |
| G22A A28G U51C A57U | 0.18 |
| G22A A28G U67C U80C | 0.06 |
| G22A A28U A57G U66G | 0.11 |
| G22A A28U U41C A45C A56U A77G | 0.16 |
| G22A A35G A75U | 0.77 |
| G22A A35G C39U U41C A64G | 0.23 |
| G22A A35G U51A U54C C62U | 0.13 |
| G22A A35U A56G A57G | 0.06 |
| G22A A45G A56U | 0.11 |
| G22A A45U U51C | 0.12 |
| G22A A45U U80A | 0.08 |
| G22A A47G A56G C79G | 0.05 |
| G22A A47U U54A A56U U69C | 0.06 |
| G22A A56G U60A G73A | 0.08 |
| G22A A56U A75G U80C | 0.12 |
| G22A A75U U78C | 0.28 |
| G22A C32A U66C | 0.29 |
| G22A C40A A47G C50U U51A | 0.07 |
| G22A G24A G30A A47G U60A | 0.12 |
| G22A G24A U26C U43C A45G | 0.16 |
| G22A G24A U31G A45G | 0.07 |
| G22A G33A U76A | 0.41 |
| G22A G42A U43C A75G | 0.15 |

| Variant | self-cleavage |
| --- | --- |
| G22A G42A U43C U60A U80A | 0.16 |
| G22A U25A A45G A56G U78A | 0.22 |
| G22A U25A U31C A57G | 0.16 |
| G22A U25C A28U G30A U41C U80A | 0.07 |
| G22A U25C A28U U41C | 0.07 |
| G22A U25C A57C A65G | 0.08 |
| G22A U25C A75U | 0.27 |
| G22A U25C C40A U41A U48C | 0.06 |
| G22A U25C G63U | 0.22 |
| G22A U25C U60A U72C | 0.15 |
| G22A U26A U43C | 0.17 |
| G22A U26A U67A A75G | 0.1 |
| G22A U26C A56G A65G U78A | 0.06 |
| G22A U26C C34A U43C A45G | 0.21 |
| G22A U31A U67C | 0.13 |
| G22A U31C A56U | 0.12 |
| G22A U41C A64U | 0.15 |
| G22A U41C U49C U69C | 0.06 |
| G22A U41C U49C U78C | 0.05 |
| G22A U41C U60C | 0.36 |
| G22A U41G A45U U49C U67C A75G | 0.08 |
| G22A U41G A56G U58C U69C U72C U80C | 0.08 |
| G22A U43C U60A C62U | 0.1 |
| G22A U49C U66C | 0.23 |

| Variant | self-cleavage |
| --- | --- |
| G22A U51A A77G | 0.09 |
| G22A U51C U60C U66C U72C | 0.12 |
| G22A U54C A57U U67C A77U | 0.04 |
| G22A U54C A65G | 0.18 |
| G22A U60A G63A | 0.39 |
| G22C A28G U49C | 0.07 |
| G22C A35G A45U C59A | 0.16 |
| G22C A35G C62A | 0.06 |
| G22C A35G C62A A64G | 0.29 |
| G22C A47G U69A A77U | 0.25 |
| G22C A56G U60A | 0.15 |
| G22C A56G U60C U76C | 0.07 |
| G22C C39A U58C | 0.07 |
| G22C C44U A64U | 0.14 |
| G22C G30C U48C | 0.07 |
| G22C U25C G33A G53C U58A | 0.04 |
| G22C U26A U51C U74A | 0.19 |
| G22C U26A U58C U72C | 0.12 |
| G22C U26A U58G | 0.19 |
| G22C U31C U41C U60C U69C | 0.03 |
| G22C U43A A47G | 0.22 |
| G22C U49C A64U | 0.12 |
| G22U A28C A75G | 0.12 |
| G22U A28G A35C U48C | 0.08 |

| Variant | self-cleavage |
| --- | --- |
| G22U A28U A57G U58G U76A | 0.14 |
| G22U A28U U31A A57G U72C | 0.06 |
| G22U A35C A45G C62G U78C U80C | 0.06 |
| G22U A35G A57G | 0.26 |
| G22U A35G U51G C62A U72C | 0.16 |
| G22U A35U A75G | 0.07 |
| G22U A47G U67C U74C | 0.13 |
| G22U A47U U74C | 0.1 |
| G22U A56G U78C | 0.09 |
| G22U C27A A28G U31A U54C U69A U80C | 0.06 |
| G22U C29U U49C U60C | 0.12 |
| G22U C34G G53A U58A | 0.1 |
| G22U C37U U43C | 0.08 |
| G22U C38G G53U A57U | 0.11 |
| G22U G30U C34U U43C U66C U80C | 0.08 |
| G22U G30U U69C U72G | 0.06 |
| G22U G33A A35G | 0.17 |
| G22U G42A U60A A64U U69A | 0.08 |
| G22U U26A G33A A65G | 0.12 |
| G22U U26A U80C | 0.25 |
| G22U U26C A64G A65G U78C | 0.08 |
| G22U U31A U54C | 0.15 |
| G22U U31C C38A | 0.15 |
